Data as given in PubChem BioAssay (NCI).
“And” between values parts separate entries of the source, which are not always exact repeats. Equal entries are not always repeated.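 Following 48 hours of exposure in 96-well plates, responses at five concentrations were used to interpolate endpoints linearly. Abbreviation: GI50, concentration required for 50% inhibition of growth. Definition used: TGI = concentration required for complete inhibition of growth.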 Numbered stars: 1 amine (or outer) side, 2 acyl side, 3 side chain; on linkers, the order of the positions; unused ones are H or OH. Bridge positions count the residues as written; N and C are the ends. Square brackets hold non-standard residues; d marks the D form. Peptide text beside a SMILES is read from it. X54 = COc1c(N[*:1])cccc1C(=O)O[C@H](C(=O)[C@H](C)C(=O)[*:2])C(C)C; X53 = CC(C)C[C@H](C(=O)[*:2])C(C)C(=O)C1CCCN1[*:1]; NMeY = CN[C@@H](Cc1ccc(O)cc1)C(=O)O; Lac = C[C@H](O)C(=O)O

System: NCI-H322M lung
Assay: DTP human tumour cell line panel, 48 h

Row | Structure (SMILES) | TGI | GI50
1 | Oc1ccccc1-c1n[nH]c(-c2ccccc2O)n1 | > 100 µM | –
2 | COc1ccc2c(c1)C1c3ccccc3CCN1CCC2 (stereo not given) | > 100 µM | –
3 | CC(C)(C)OC(=O)NCC(=O)N(CCc1ccc(Cl)c(Cl)c1)CCN1CCCC1 | 40 µM | –
4 | Cc1ccc(N(/C=C/C(=O)C(F)(F)F)CC(=O)c2ccc(Cl)c(Cl)c2)cc1 | 18.9 µM | 2.28 µM
5 | O=c1cc(-c2ccc3ccccc3c2)[nH]c2ncccc12 | > 100 µM | –
6 | CC1NCCc2c1[nH]c1cc(O)ccc21 (stereo not given) | > 100 µM | –
7 | CCCCCCCCc1ccc(CCC(N)(CO)CO)cc1 | 10.4 µM | 3.14 µM
8 | CC(C)C[C@H]1C(=O)N2CCC[C@H]2[C@]2(O)O[C@](NC(=O)[C@@H]3C=C4c5cccc6[nH]c(Br)c(c56)C[C@H]4N(C)C3)(C(C)C)C(=O)N12 | > 100 µM | –
9 | COc1ccc(C[C@H]2C(=O)O[C@H](C)[C@H](NC(=O)[C@@H](CC(C)C)C(C)C(=O)C3CCCN3C(=O)[C@H](C)O)C(=O)Nc3cccc(c3OC)C(=O)O[C@@H](C(C)C)C(=O)[C@H](C)C(=O)N[C@@H](CC(C)C)C(=O)N3CCC[C@H]3C(=O)N2C)cc1 (stereo not given in full) (H-[Lac][X53]T[X54]LP[NMeY](Me); ester 3-C) | > 12.5 µM | –
10 | Cc1ccc(S(=O)(=O)NNC(C[N+](=O)[O-])c2ccccc2)cc1 (stereo not given) | 69.9 µM | –
11 | Cc1cc(S(=O)(=O)Nc2nc3ccccc3[nH]2)c(SCc2ccccc2)cc1Cl | > 100 µM | 26 µM
12 | C/C(=C1/N=C(c2ccccc2)OC1=O)c1ccccc1 | > 100 µM | –
13 | CCP(C)(C)=O | > 100 µM | –
14 | CNC1=CC(=O)C2=C(C1=O)C1C3=C(C(=O)C(Br)=C(OC)C3=O)C2c2ccccc21 (stereo not given) | 21.6 µM | 11.5 µM
15 | COCCNC1CCC(=O)c2[nH]c3ccccc3c21 (stereo not given) | > 100 µM | –
16 | O=C(O)c1nnsc1-c1csnn1 | > 100 µM | –
17 | COc1ccc(/C(=C\c2cc(OC)c(OC)c(OC)c2)C(=O)O)cc1 | > 100 µM | –
18 | Clc1ccc(N/N=C(\c2ccccc2)c2ccccn2)nc1 | > 100 µM and 39 µM | 0.083 µM
19 | COC(=O)/C=C/c1ccc2c(c1)[C@H](C(=O)OC)[C@@H](c1ccc(O)cc1)O2 | > 100 µM | –
20 | Nc1ncnc2c1ncn2[C@@H]1C[C@H](NO)[C@@H](O)[C@H]1O | > 100 µM | –
21 | N#CSCC1CC(O)(c2ccccc2)CC(c2ccc(Cl)cc2)O1 (stereo not given) | 19.1 µM | 4.98 µM
22 | C[n+]1cc2cc3c(cc2c2ccccc21)OCO3 | 24.7 µM | 3.5 µM
23 | COC(=O)C1=CO[C@@H](OC2OC(CO)C(O)C(O)C2O)[C@@H]2[C@H](C)[C@@H](O)[C@@H](O)[C@]12O (stereo not given in full) | > 100 µM | –
24 | CC(=O)c1sc2n(C)c(=O)c3ccccc3[n+]2c1C | > 100 µM | –
25 | CC(C)(C)c1cc(-c2c3nc(c(-c4cc(C(C)(C)C)cc(C(C)(C)C)c4)c4ccc([nH]4)c(-c4cc(C(C)(C)C)cc(C(C)(C)C)c4)c4nc(c(-c5cc(C(C)(C)C)cc(C(C)(C)C)c5)c5ccc2[nH]5)C=C4)C=C3)cc(C(C)(C)C)c1 | > 100 µM | –

Row | Structure (SMILES) | TGI | GI50
26 | CN(C)CCCN1c2ccc(O)cc2Sc2ccc(Cl)cc21 | 27.9 µM | –
27 | CC(C)(C)OC(=O)NC(Cc1ccc(OCc2ccccc2)cn1)C(N)=O (stereo not given) | > 100 µM | –
28 | COc1cc(/C=C2\NC(=S)C3Cc4c(OC)c(C)c(OC)c(OC)c4C2N3C)c(OC)c(C)c1OC (stereo not given) | > 100 µM | –
29 | CCC1(CC)C(=O)NN(C(=O)c2ccc(Cl)cc2)C1=O | > 100 µM | –
30 | CC(=O)OC1CC2C(C)(C)OC(=O)CC(OC(C)=O)[C@]2(C)C2CCC3(C)C(=CCC3c3ccoc3)[C@]12C (stereo not given in full) | > 100 µM | –
31 | CNC(=O)/C(=C/c1ccc(OC)cc1)c1cc(OC)c(OC)c(OC)c1 | > 55.1 µM | –
32 | O=C1c2ccccc2C(=O)c2sc(Nc3ccc(Cl)cc3)nc21 | 10.5 µM | –
33 | CC(CC(C)[C@H]1CCC2[C@H]3C(CC(=O)[C@@]21C)[C@@]1(C)CCC(O)C[C@H]1C[C@@H]3O)C(=O)O (stereo not given in full) | > 100 µM | –
34 | O=C(CSc1nc2ccc(I)cc2c(=O)n1Cc1ccccc1)NN1C(=O)CSC1c1ccccc1 (stereo not given) | > 100 µM | –
35 | CC(=O)Oc1ccccc1C(=O)NCCC[Se]C#N | 4.53 µM | 1.8 µM
36 | CC1CN=C(NS(=O)(=O)c2cc(C(=O)Nc3ccccc3)c(Cl)cc2S)NN1 (stereo not given) | > 100 µM | –
37 | O=c1[nH]cc(COCC(O)CO)c(=O)[nH]1 (stereo not given) | > 100 µM | –
38 | CNc1cccc2c1C(C)C[C@]1(C)C(=O)Nc3ccccc3[C@H]21 (stereo not given in full) | 72.8 µM | –
39 | Cc1cccc2c(N=Nc3ccccc3[N+](=O)[O-])c(O)[nH]c12 | 63.3 µM | –
40 | [O-]/[N+](=N/c1ncc(-c2ccccc2)cn1)c1ncc(-c2ccccc2)cn1 | > 100 µM | –
41 | Cc1nnc2n1N=C(c1ccc(-c3ccc([N+](=O)[O-])cc3)o1)CS2 | > 100 µM | –
42 | COc1cc2c(c(OC)c1OC)C(=O)c1c-2n(CCCN=[N+]=[N-])c(=O)c2cc([N+](=O)[O-])ccc12 | > 100 µM | > 100 µM
43 | CN(C(=O)c1cc2c(s1)sc1c(=O)n(C)c3ccccc3c12)c1ccccc1 | > 100 µM | –
44 | COC1=CC(=O)c2c(n[nH]c2CCNC(=O)OCc2ccccc2)C1=O | 34.2 µM | –
45 | C=CCN(N=O)C(=O)N(CCCCC(NC(C)=O)C(=O)NCc1ccccc1)Cc1ccccc1 (stereo not given) | > 100 µM | –
46 | Cc1cc(Cl)ccc1N1C(=O)C(=O)C(c2nc3ccccc3o2)C(=O)C1=O | > 100 µM | –
47 | O=C1OC(C2Cc3ccc4c(c3C2=O)CCCC4)c2ccccc21 (stereo not given) | > 100 µM | –
48 | O=c1oc2c(cc1-c1ccccc1)C(O)Oc1ccccc1-2 (stereo not given) | > 100 µM | 16.1 µM
49 | N/N=C(/CC(O)(C(F)(F)F)C(F)(F)F)c1ccccc1 | > 10 µM | –
50 | CCCC(CCC)Oc1ccc(CCCC2=C(O)c3ccccc3C(=O)C2=O)cc1 | 24.2 µM | 10.6 µM

Row | Structure (SMILES) | TGI | GI50
51 | COc1ccc(-c2cc(=O)c3ccc(F)cc3[nH]2)cc1 | > 100 µM | –
52 | NC(=S)N/N=C/c1ccc(OC(=O)COc2ccccc2)cn1 | > 100 µM | 4.86 µM
53 | COC(=O)C1=C(C(=O)OC)C(OO)(c2ccccc2)OC1=O (stereo not given) | > 100 µM | –
54 | C[CH2][Ge]([CH2]C)([CH2]C)[O]C(=O)C([O][Ge]([CH2]C)([CH2]C)[CH2]C)c1ccccc1 (stereo not given) | > 100 µM | 32.9 µM
55 | Cn1ccc2c3c(=O)cc[nH]c3ccc21 | > 100 µM | > 100 µM
56 | Cc1ccccc1NC(=O)C(=O)CC(=O)C1CCOC1=O (stereo not given) | > 100 µM | –
57 | C[N+]1(c2ccccc2)C=C(c2ccccc2)SC1=S (stereo not given) | > 100 µM | –
58 | O=C1Nc2ccccc2/C1=N/N1C(=O)/C(=C/c2ccccc2S)N=C1c1ccccc1 | > 100 µM | –
59 | O=C(/C=C/c1ccc(O)cc1)c1cc(-c2cc(CCC(=O)c3ccc(O)cc3O)ccc2O)c(O)cc1O | > 50 µM | –
60 | O=C(NCCNC(=O)c1ccc(F)cc1)Nc1ccc(-n2cc(-c3ccncc3)c(-c3ccc(Cl)c(O)c3)n2)cc1 | 6.8 µM | 1.05 µM
61 | Cc1cc(C)nc(NS(=O)(=O)c2ccc(Nc3nnc(/C=C/c4c(O)ccc5ccccc45)c(=O)n3N)cc2)n1 | > 100 µM | –
62 | CNC(=O)OCc1nc(N=[N+]=[N-])n(C)c1COC(=O)NC | > 100 µM | –
63 | CCOc1ccc(N=Nc2ccc(-c3ccc(N=Nc4c(O)ccc5cc(S(=O)(=O)O)cc(S(=O)(=O)O)c45)cc3)cc2)cc1 | > 100 µM | –
64 | Cc1ncc(COP(=O)(O)O)c(C)c1O | > 100 µM | –
65 | OCC#CCCCCOCC#Cc1ccccc1C#CCOCCCCC#CCO | 60.8 µM | 16.7 µM
66 | O=[N+]([O-])c1cc(Cl)ccc1S(=O)(=O)c1ccc(Cl)cc1[N+](=O)[O-] | 29.9 µM | –
67 | COc1ccc(Nc2ncc(-c3ccccc3)o2)cc1OC | > 25 µM | 10.5 µM
68 | CC1(C)N([O-])[N+](=O)C1(Br)c1ccccc1 (stereo not given) | > 100 µM | –
69 | CN1C(=O)C(C#N)C2C[C@@]1(C)Oc1ccccc12 (stereo not given in full) | > 100 µM | –
70 | COc1cc2oc(-c3cccc(C(=O)Nc4ccc(C)cc4)c3)cc(=O)c2c(OC)c1OC | > 100 µM | 3.82 µM
71 | NCCn1cnc2nc(NC(=O)c3ccccc3)[nH]c(=O)c21 | > 100 µM | –
72 | C/C(CC(=O)Nc1ccccc1)=N\NC(N)=S | > 100 µM | –
73 | CN(C)CCN=C1Nc2ccccc2C(=O)N2CSCC12 (stereo not given) | > 100 µM | –
74 | O=C(c1ccc(Cl)c(Cl)c1)N(C(=O)N1CCN(c2ccccc2)CC1)S(=O)(=O)c1ccccc1 | > 100 µM | –
75 | O=S1(=O)c2ccccc2-c2nccc3ccnc1c23 | > 100 µM | –

Row | Structure (SMILES) | TGI | GI50
76 | O=C(/C=C/c1ccccc1Br)c1ccccc1 | 28 µM | –
77 | CC(=O)C(N=NC1CCC(S(=O)(=O)NB2N=CS2)CC1)C(=O)Nc1ccccc1C (stereo not given) | 43.4 µM | –
78 | CCCCCCCC(=O)NS(=O)(=O)c1ccccc1 | > 100 µM | –
79 | CC1=C/C(O)CC(=O)Cc2nc(co2)C(=O)N2CCC=C2C(=O)OC(C(C)C)C(C)/C=C\C(=O)NC/C=C\1 (stereo not given) | > 100 µM | 34.1 µM
80 | N=C(N)SCCN1CCCCC1 | > 100 µM | –
81 | O=C1O/C(=C\C=C\CO)C=C1/C=C/CO | 95.1 µM | –
82 | C=C1C(=O)O[C@H]2[C@H]1CC/C(COC(=O)C(=O)c1c[nH]c3ccc(Cl)cc13)=C\CC[C@@]1(C)O[C@@H]21 | 4.25 µM | 1.8 µM
83 | N#CCCN(CCCN(C(=O)Nc1ccc(NC(=O)N(CCCN(CCC#N)C(N)=O)c2ccccc2)cc1)c1ccccc1)C(N)=O | > 100 µM | –
84 | Cn1nc(S(N)(=O)=O)s/c1=N/S(=O)(=O)c1ccc(N)cc1 | > 100 µM | –
85 | Cc1cccc(Cl)c1NC(=O)c1cccc([N+](=O)[O-])c1O | > 100 µM | –
86 | O=C(/N=C1/OC(CN2CCOCC2)CN1C(=O)Nc1ccccc1)Nc1ccccc1 (stereo not given) | > 100 µM | –
87 | CCOC(=O)Nc1ccc(C(=O)/C=C/c2ccccc2)cc1 | > 100 µM | 30.2 µM
88 | O=[N+]([O-])c1cc2ccc1OCc1cccc(n1)COc1ccc(cc1[N+](=O)[O-])C=NCCCCCCCCN=C2 | > 100 µM | –
89 | O=C(Nc1ccccc1[N+](=O)[O-])C(=O)C(C(=O)c1ccccc1-c1ccccc1)C1OC(=O)c2ccccc21 (stereo not given) | 31 µM | –
90 | COc1ccc2c(c1)C(=O)c1c-2n(CCCN=[N+]=[N-])c(=O)c2cc(N)ccc12 | > 100 µM | > 100 µM
91 | O=C(NN1C(=O)C(Cl)C1c1cccc(Cl)c1)c1ccccc1O (stereo not given) | > 100 µM | –
92 | CC(=O)OCC1OC(n2c(=S)n(-c3ccccc3)c(=O)c3cc(Br)ccc32)C(OC(C)=O)C(OC(C)=O)C1OC(C)=O (stereo not given) | > 100 µM | –
93 | O=C(O)c1cc2cc(O)ccc2[nH]1 | > 100 µM | > 100 µM
94 | Oc1c(Cl)cc(CN(Cc2cc(Cl)c(O)c(Cl)c2)C2CCCCC2)cc1Cl | > 100 µM | –
95 | NC(=S)N/N=C1\CC(c2ccccc2)Nc2ccccc21 (stereo not given) | > 100 µM | –
96 | CCOC(=O)C1=C(C)N(NC(=O)OC)C2(N)N(NC(=O)OC)C(C)=C(C(=O)OCC)C12C#N (stereo not given) | > 100 µM | –
97 | COc1ccc(OC)c([N+](=O)[O-])c1-c1nc2sc(C)c(C)n2c1/C=N/N=C(N)N | > 100 µM | –
